Consider 84 compounds from ChEMBL document CHEMBL4888484, “Replenishing the malaria drug discovery pipeline: Screening and hit evaluation of the MMV Hit Generation Library 1 (HGL1) against asexual blood stage Plasmodium falciparum ,using a nano luciferase reporter read-out” (2022).

The whole screen tested about 150,000 compounds, of which about 540 (0.36%) showed an effect of 50% or more. The list shows a part of the results.

This test concerns Plasmodium falciparum. The test is described as follows: Primary screen in NF54 nanoGlo assay, in single point, at 2uM, 72h; a lower Z score goes with more inhibition. It is filed as functional, Erythrocyte. The conditions noted are these: timepoint 72 hour.
For the compound `Cc1cc(N(C)C(=O)[C@H]2CCC(=O)N(c3cccc(F)c3)C2)ccn1`, the % Inhibition – broadly, the change of the read-out against control, counted positive when it falls – is -6% and the Z score is 0.88.
With `O=C(CN1C(=O)NC2(CCCC2)C1=O)c1ccc(OC(F)F)cc1`, the “% Inhibition” value is recorded as -4% and the Z score is listed as 0.57.
On the same counts, the results for `CCCNC(=O)N1CCOC[C@H](Oc2ccc(C(F)(F)F)cn2)C1` are 15% and -1.71.
In the case of `Cc1ccc(NC(=O)[C@H]2CCCN(c3cc(=O)n(C)c(=O)n3C)C2)cc1`, the “% Inhibition” value is -4% and the Z score is on record as 0.59.
As for `CO[C@H]1CCN(Cc2ccnc3ccccc23)C1`, the “% Inhibition” value is listed as -1% and the Z score came to 0.15.
On the same counts, the results for `O=C(NCc1cccs1)OCC(F)(F)F` are 1% and -0.08.
On to `CCn1ncnc1[C@H](C)NC(=O)c1ccc(-c2c(C)[nH]c(=O)[nH]c2=O)cc1`, for which the “% Inhibition” value is on record as -10% and the Z score amounted to 1.21.
On the same counts, the results for `Nc1c2c(-c3cccs3)nc(NCCc3cccs3)nc2nn1-c1ccccc1` are -16% and 2.4.
Consider `Cc1nc(CCn2ccccc2=O)n(-c2ccc(F)cc2F)n1`, for which the “% Inhibition” value is -1% and the Z score was found to be 0.11.
Consider `CC(C)n1c(=O)[nH]c2cc(C(=O)N3CCO[C@@H](C)C3)ccc2c1=O`, for which the “% Inhibition” value is -2% and the Z score was determined as 0.27.
The like results for `O=C(NCC1CCCO1)C1COC2(CCN(C(=O)c3ccccc3F)CC2)N1C(=O)c1cccc(F)c1` (stereo not drawn) were, in that order, -11% and 2.14.
The like results for `CC(=O)N(c1ccc(N(C(C)=O)S(=O)(=O)c2ccc(Cl)cc2)c2ccccc12)S(=O)(=O)c1ccc(Cl)cc1` were, in that order, -9% and 1.69.
Consider `CC(C)[C@H](OC(=O)c1[nH]c2ccc(Cl)cc2c1Cl)C(=O)N1CCOCC1`, for which the “% Inhibition” value came out at 24% and the Z score is -2.66.
The like results for `Cc1ncsc1CN(C)C(=O)[C@@H]1COCCN1` were, in that order, -5% and 0.7.
On to `CCCN(C[C@H]1CCCCO1)C(=O)c1c(C)c(C)n[nH]c1=O`, for which the “% Inhibition” value is -2% and the Z score is 0.31.
The like results for `CCOc1ccc2c(c1)[C@@H](NC(=O)Nc1cc(C)nn1-c1ccccn1)CCO2` were, in that order, 3% and -0.59.
As to `COc1ccc(CNc2ccc(Cl)c(N3CCNC3=O)c2)cc1O`, the “% Inhibition” value was -10% and the Z score came out at 1.6.
On the same counts, the results for `COC1CC(C(=O)N(C)c2ccc(C)cc2F)C1` (stereo not drawn) are -14% and 1.43.
The like results for `C#CC[C@H](Nc1ncc(Br)cn1)C(N)=O` were, in that order, 2% and -0.26.
Take `O=C(Cn1nc(-c2ccccc2)ccc1=O)N1CCOCC1`: the “% Inhibition” value worked out at 28% and the Z score is listed as -3.2.
The like results for `CCOc1ccccc1NC(=O)Cn1cnc2c(-c3ccncc3)nsc2c1=O` were, in that order, -13% and 1.63.
The like results for `COC(=O)COc1cc(-c2ccc(OC)cc2)nc2ccc(NC(=O)c3ccc(OC)cc3)cc12` were, in that order, 13% and -1.3.
With `CC(C)Oc1ccc(-c2ccc(NC(=O)N(C)C[C@H]3C[C@@H](O)C3)c(F)c2)cc1`, the “% Inhibition” value is reported as -8% and the Z score is reported as 1.01.
For the compound `CN1CC[C@](C)(CN(C)Cc2[nH]c3ccccc3c2Cl)C1`, the “% Inhibition” value is -5% and the Z score was found to be 0.69.
On the same counts, the results for `CN1CCN(c2nc3nccc(-c4ccc(Cl)cc4)c3c(=O)[nH]2)CC1` are -13% and 1.82.
On the same counts, the results for `CN(CCCn1cccn1)Cc1cc(=O)n2ccsc2n1` are 7% and -1.38.
Regarding `O=C1CCc2cc(NCc3ccco3)ccc2N1CC1CC1`, the “% Inhibition” value is listed as -17% and the Z score came out at 2.56.
With `CC(=O)CC(=O)Nc1ccc(Cl)cc1C`, the “% Inhibition” value is -10% and the Z score came to 1.26.
As to `O=C(c1nnn2c1c(=O)[nH]c1cc(F)ccc12)N1CCCCC1`, the “% Inhibition” value was determined as 1% and the Z score is listed as -0.23.
On the same counts, the results for `CC(=O)Nc1cccc(NC(=O)c2cn(CC3(O)CCN(Cc4ccccc4)CC3)nn2)c1` are 30% and -3.44.
`COc1ccc(Cl)cc1S(=O)(=O)c1cnc(N2CCC[C@H](C)C2)nc1N`: the “% Inhibition” value is given as 0% and the Z score is recorded as -0.05.
The like results for `C=C(C)CC(C)C(=O)N1CCN(CC2CCCS2(=O)=O)CC1` (stereo not drawn) were, in that order, -2% and 0.33.
Regarding `N#CCCn1cc(CNc2ccc(Cl)c(Cl)c2)c(-c2ccccc2)n1`, the “% Inhibition” value came to 4% and the Z score was -0.4.
For the compound `CCC(CC)c1nnc(NC(=O)c2cc(C)oc2C)s1`, the “% Inhibition” value is -16% and the Z score is given as 1.34.
For the compound `CCc1nccn1CCN(C)CCN(C)C1CCCC1`, the “% Inhibition” value is given as 2% and the Z score is listed as -0.26.
Take `CC(C)c1nccc(CN2CC[C@H](CNC(=O)C(C)(C)C)C2)n1`: the “% Inhibition” value was -9% and the Z score was 1.25.
On the same counts, the results for `COc1ccc(-c2cc(C3CC3)ncn2)c(C)c1` are -4% and 0.65.
The like results for `CC(C)(C)Oc1cc(C(=O)NCc2ccc3c(c2)OCO3)ccn1` were, in that order, 3% and -0.35.
The like results for `CCC(=O)NCCc1ncc(C)n1C1CCCCCCC1` were, in that order, 0% and -0.05.
`CC(C)Oc1ccc(CN2CC(c3nc(-c4ccsc4)nn3C)C2)cc1`: the “% Inhibition” value amounted to 26% and the Z score is recorded as -3.56.
The like results for `c1coc(CCCN2CCC[C@H](c3nnc4ccccn34)C2)c1` were, in that order, -5% and 0.74.
On the same counts, the results for `CCN(CC)CCCNC(=O)c1ccc(-c2[nH]nc3c2CCCc2ccccc2-3)cc1` are -6% and 0.84.
The like results for `Cc1cccc(N2CCC(NC(=O)[C@@H]3CCCCN3C(=O)c3ccccc3)CC2)c1` were, in that order, 7% and -1.18.
Turning to `N#Cc1cnc(NCCCCc2ccnc(N)c2)c(Cl)c1`, the “% Inhibition” value is listed as -7% and the Z score is on record as 0.86.
The like results for `CCOC(=O)c1nn(Cc2ccccn2)c2c1CN(C(=O)c1cc(C)nn1C)CC2` were, in that order, -9% and 1.09.
On the same counts, the results for `CC(C)C1(C)CC1C(=O)N1CCN(C(=O)CN2CCOCC2)CC1` (stereo not drawn) are -3% and 0.6.
On the same counts, the results for `COc1ccnc(NC2CCN(C(=O)Nc3ccc(C4CC4)c(F)c3)CC2)n1` are -9% and 0.82.
On to `O=C(Nc1cc(S(=O)(=O)N2CCCC2)ccc1OCC(F)(F)F)[C@@H]1CC=CCC1`, for which the “% Inhibition” value was found to be 6% and the Z score is given as -0.63.
Consider `Cc1csc([C@H](C)OC(=O)c2cccnc2)n1`, for which the “% Inhibition” value is -7% and the Z score amounted to 1.04.
On the same counts, the results for `Cc1c(C(=O)N2CC3CCC2C3)cnn1-c1ncc2c(n1)-c1ccccc1CCC2` (stereo not drawn) are 27% and -3.58.
The like results for `COc1ccccc1NC(=O)CC1CS(=O)(=O)CC1CC(=O)Nc1ccccc1OC` (stereo not drawn) were, in that order, 39% and -1.29.
For `O=S(=O)(Nc1nc(-c2ccccn2)cs1)c1cccc(F)c1`, the “% Inhibition” value is reported as -16% and the Z score stood at 2.06.
The like results for `O=C(NC1(CN2CCN(c3ccc(F)cc3)CC2)CC1)c1cc(O)ncn1` were, in that order, -4% and 0.72.
On the same counts, the results for `NC(=O)C[C@H]1CCCN(S(=O)(=O)CC2CCCC2)C1` are -13% and 1.64.
The like results for `COCc1cc(Cl)ccc1NC(=O)N[C@H]1CCO[C@@H]1c1ccncc1` were, in that order, -6% and 1.11.
On to `O=C(CCCCc1nc2ccccc2s1)N1CCOCC1`, for which the “% Inhibition” value is reported as 34% and the Z score is -3.9.
The like results for `NC(=O)c1ccc(NC(=O)[C@H](Cc2ccccc2)NC(=O)N2CCCC2)cc1` were, in that order, 3% and -0.33.
The like results for `CCCOC(=O)c1cc(-c2cncnc2)ccc1N` were, in that order, -10% and 1.82.
As for `CCc1ccc(-c2nc3oc(-c4ccccc4)nc3c(=O)[nH]2)cc1`, the “% Inhibition” value is on record as 2% and the Z score is given as -0.29.
On to `CC(C)(C)OC(=O)N1CCC[C@@](O)(C2(C(=O)NCC#N)CCC2)C1`, for which the “% Inhibition” value is listed as -5% and the Z score is on record as 0.97.
The like results for `CCOC(=O)CCN1CC(C)CC(C)C1` (stereo not drawn) were, in that order, 6% and -0.74.
In the case of `Cc1noc([C@]23CN(Cc4cccnc4)CC[C@H]2CN(Cc2ccccc2)C3)n1`, the “% Inhibition” value was -1% and the Z score amounted to 0.08.
The like results for `CCn1ncc2c1NC(=O)C[C@@H]2c1ccccc1Cn1cccn1` were, in that order, -6% and 1.12.
As for `COc1nc(NC2CCS(=O)(=O)CC2)ncc1F`, the “% Inhibition” value was 65% and the Z score is on record as -7.11.
On the same counts, the results for `Cc1noc(CCCNC(=O)N2CC(c3ccccc3)C3COCCC32)n1` (stereo not drawn) are -16% and 2.66.
The like results for `CCCS(=O)(=O)C(C)C(=O)NCC(C)(O)c1ccc(F)cc1F` (stereo not drawn) were, in that order, 15% and -1.83.
As for `c1coc([C@@H]2CCCN2CCn2cnc3ccccc32)c1`, the “% Inhibition” value is 3% and the Z score is listed as -0.43.
As to `C[C@@H](c1cc(-c2ccccc2)[nH]n1)N(C)C(=O)NC1(C2CC2)CC1`, the “% Inhibition” value is -15% and the Z score came out at 1.61.
The like results for `CC(C)(C)c1ccc(S(=O)(=O)N2CCC[C@H](n3cncn3)C2)cc1` were, in that order, -9% and 1.22.
The like results for `COc1nccnc1N1CCC2(CC1)OCCC[C@@H]2OC` were, in that order, -12% and 2.62.
Consider `Cc1sc(-c2ccccc2F)nc1C(=O)Nc1ccc2c(c1)OCO2`, for which the “% Inhibition” value was 0% and the Z score was -0.03.
On the same counts, the results for `Cn1nc(C(F)(F)F)c(C#N)c1OC(=O)c1c(F)cccc1F` are -6% and 0.68.
As to `Cc1noc(C)c1S(=O)(=O)N1CCc2cc(Br)ccc2C1`, the “% Inhibition” value is on record as -9% and the Z score turned out to be 0.88.
With `CCN1C[C@H](NC(=O)C2(N3CCCC3)CCCCC2)[C@@H](OC)C1`, the “% Inhibition” value was determined as 10% and the Z score is -1.88.
As to `Cc1cc(-c2ccc(C(=O)N3CCC[C@](C)(O)CC3)cc2)c2ccccc2n1`, the “% Inhibition” value stood at 3% and the Z score is listed as -0.55.
As to `CC[C@H]1CCN(C(=O)C2CCN(c3ccc(C)cn3)CC2)C1`, the “% Inhibition” value is given as -12% and the Z score stood at 2.48.
Regarding `CNC(=O)N1C[C@@H](CN(C)C)[C@H](NC(=O)c2cc(C)cc(C)c2)C1`, the “% Inhibition” value is -14% and the Z score came to 2.2.
The like results for `CCc1ccccc1CC(=O)N1CC[C@](CO)(COC)C1` were, in that order, -17% and 1.69.
Consider `Cc1cccc2c1cnn2CCC(=O)NC1CCCC1`, for which the “% Inhibition” value stood at 28% and the Z score is listed as -3.76.
The like results for `Cc1noc(NCc2ccc(Cl)cc2)n1` were, in that order, 48% and -5.43.
Take `CC(C)(C)OC(=O)n1ccc2cccc(S(=O)(=O)NC[C@H]3COCCO3)c21`: the “% Inhibition” value was -21% and the Z score is 2.24.
With `COc1ccc2c(c1)CCc1c-2noc1-c1ccc(C)c(NC(=O)c2c(-c3ccccc3)noc2C)c1`, the “% Inhibition” value is listed as -9% and the Z score is 1.31.
With `COC(=O)CCc1csc(NCc2c(C(F)(F)F)cnn2C)n1`, the “% Inhibition” value is -5% and the Z score stood at 0.79.
On to `CC1(C)COCCN1C(=O)Cc1cnn(-c2ccccc2)n1`, for which the “% Inhibition” value is recorded as 32% and the Z score is -0.49.
